Data reported in PubChem BioAssay AID1346428 (National Center for Advancing Translational Sciences (NCATS), 2018).
Among all 48,000 compounds or so, about 1,200 (2.5%) were called active. Another 2% or so got no clear call; they are omitted.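 Rule for the calls: active = activation of at least 60% and not above a set upper limit (about 1 call in 100 departs from these limits); inconclusive = activation of 40% to 60%, or above that upper limit; inactive = activation under 40%.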 The list shows a part of the results.

Target: Probable G-protein coupled receptor 32 (Homo sapiens) (UniProt O75388)
Sequence of UniProt O75388 (O75388 whole entry, looked up): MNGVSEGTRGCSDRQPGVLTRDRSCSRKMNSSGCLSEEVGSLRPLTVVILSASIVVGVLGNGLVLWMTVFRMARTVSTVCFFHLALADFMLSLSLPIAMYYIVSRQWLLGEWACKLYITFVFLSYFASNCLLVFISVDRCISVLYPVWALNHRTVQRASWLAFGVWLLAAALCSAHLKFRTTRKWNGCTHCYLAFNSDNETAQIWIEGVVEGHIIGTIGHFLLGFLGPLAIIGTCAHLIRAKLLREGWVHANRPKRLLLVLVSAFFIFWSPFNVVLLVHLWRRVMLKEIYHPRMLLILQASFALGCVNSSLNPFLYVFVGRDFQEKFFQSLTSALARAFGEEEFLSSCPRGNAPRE
Experiment: qHTS for Agonists of Human Resolvin D1 Receptor DRV1; note: 0% is about no effect
Details: CHO-K1 GPR32 beta-arrestin PathHunter luminescence, 90 min; at 76.9 µM; hits give high values; zero percent set by DMSO-only wells
Summary of the method: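 Luminescent readout of beta-Gal complementation quantifies ligand-induced beta-arrestin association with GPR32 in CHO-K1 cells; 90 min compound incubation at 37 °C, detection 1 h at room temperature.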

activation, inactive:
Cc1cc(C)c(NC(=O)CSc2nncn3c2cc2oc(C)cc23)c(C)c1 -4.87%
Cc1ncc(CO)c(C=O)c1O -18.2%
Cc1ccc(OCCSc2nc(C)c(Cc3ccccc3)c(=O)[nH]2)cc1 -6.74%
Cc1cc2oc(C(=O)Nc3ccc(S(=O)(=O)N4CCC(C)CC4)cc3)cc(=O)c2cc1C 5.05%
Cc1ccc(-n2nc3c(N4CCC(C(=O)NC5CCCCC5)CC4)nnc(C)c3c2C)cc1 10.2%
COc1ccc(-c2ccc(CNCCCSc3nnnn3C)o2)cc1Cl -8.66%
COc1ccc(-n2ncc(C(=O)N3CCN(C(=O)c4ccco4)CC3)c2C2CCN(C(=O)OC(C)(C)C)CC2)cc1 14.3%
CC(C)Cc1ccc(S(=O)(=O)NCc2nc3cccnc3n2Cc2ccccc2)cc1 -24.6%
CCCCCOc1ccccc1CN1C(=O)C(=O)c2cc(C)ccc21 -87.6%
COc1ccc(NC(=O)c2c(NCc3ccc(OC)c(OC)c3OC)sc3c2CCC3)c(OC)c1 -17%
Cc1ccc(/C=C/C(=O)N2CCC(c3nc4ccccc4o3)CC2)cc1 -7.42%
Cc1ccc(N(C)S(=O)(=O)c2ccc(-c3coc(C)n3)cc2)cc1 16.9%
COc1ccccc1N1CCN(CCCNC(=O)c2nnc(Cc3ccc(F)cc3Cl)o2)CC1 -7.47%
Cc1ccc(NC(=O)CN2C(=O)COc3ccc(S(=O)(=O)N4CCOCC4)cc32)cc1N(C)C -21.7%
Cc1cccc(-c2noc(-c3ccc(NCc4ccccc4)c([N+](=O)[O-])c3)n2)c1 9.86%
CC1=C(c2ccc(C)c(C)c2)S(=O)(=O)N=C1N1CCC(C(=O)NCc2ccccc2C)CC1 45.1%
Cc1cc(C)c2oc(-c3ccc(NC(=O)COc4ccccc4C)cc3)nc2c1 -22.6%
Fc1ccc(CSc2nncn3c2cc2occc23)c(Cl)c1 -28.4%
CCOc1ccc(CCNC(=O)c2cc3sccc3n2CC)cc1OCC 4.99%
CC1=C(C(N)=O)C(c2cccc(Br)c2)n2nc(SCc3ccccc3Cl)nc2N1 (centres undefined) -6.85%
CCc1nc2ccc(C(=O)N3CCN(c4cc(C)ccc4C)CC3)cc2nc1CC -36.6%
COc1cc(C2C(C(=O)Nc3ccc(Cl)cc3)=C(C)Nc3nc(SC)nn32)cc(OC)c1OC (centres undefined) 4.35%
Cc1nn(CC(=O)NCCc2ccccc2)c(=O)c2nn(-c3ccccc3)c(C)c12 -15.9%
Cc1ccc(Cn2c(CO)cnc2SCC(=O)NCc2ccccc2Cl)cc1 2.67%
COc1ccc(N2CCN(C3(c4ccccc4)C(=O)c4ccccc4C3=O)CC2)cc1 6.66%
Cc1ccc(Cl)cc1N(C)C(=O)c1cc2c(Cl)nc3ccccc3c2s1 4.21%
N#C/C(=C/c1ccccc1Cl)c1nc2ccccc2c(=O)[nH]1 2.39%
CCCCCCNC(=O)c1c[nH]c2ccc(S(=O)(=O)N(C)c3ccc(C(C)C)cc3)cc2c1=O -9.31%
O=C(C1CCC(Cn2c(=O)c3sccc3n(Cc3cccc(F)c3)c2=O)CC1)N1CCOCC1 (centres undefined) -13.8%
CC(=O)Nc1ccc(Nc2nc3c(S(=O)(=O)c4cc(C)ccc4C)nnn3c3ccsc23)cc1 -15.6%
Cc1cc2nn(-c3ccc(F)cc3)nc2cc1NC(=O)c1cccc([N+](=O)[O-])c1C 15.1%
COc1cccc(OC(=O)CSc2nnc(-c3cccs3)o2)c1 -5.46%
Cc1[nH]cnc1CN1CCc2c(c3ccccc3n2C)C1=O 3.13%
COc1ccc(N2C(=O)CSC23C(=O)N(CC(=O)Nc2ccccc2F)c2ccccc23)cc1 (centres undefined) -4.97%
COC(=O)c1ccc(Nc2nc(-c3ccccc3Cl)nc3ccccc23)cc1 -7.03%
Clc1cccc(-c2nc3ccccn3c2Nc2ccc3c(c2)OCCO3)c1 -7.36%
CC1(C)OC[C@@H](COC(=O)CCc2ccc(OC[C@@H](O)CNCCNC(=O)N3CCOCC3)cc2)O1 -1.7%
Cc1cc(OC(C)C(=O)N2CCC(c3nc4ccccc4o3)CC2)ccc1Cl (centres undefined) 32.6%
Cc1ccc(CSCCNC(=O)C2CCN(S(=O)(=O)Cc3ccccc3)CC2)cc1 13.9%
COc1ccccc1NC(=O)CSc1ccc(-c2ccccn2)nn1 11.8%
Cc1ccc(N(C)C(CNS(=O)(=O)c2ccccc2)c2ccccc2)cc1 (centres undefined) -7.97%
COc1cccc(CNC(=O)Cn2nc(-c3ccc(C)cc3)ccc2=O)c1 -10.9%
CCCNC(=O)C1CCN(C(=O)N2CC(C)Oc3ccccc32)CC1 (centres undefined) -14.2%
CCn1ccc2cc(S(=O)(=O)N3CCCN(C(=O)Nc4cccc(SC)c4)CC3)ccc21 -7.46%
Cc1ccc(NC(=O)Cn2cc(C(=O)c3ccco3)c3ccccc32)cc1C 0.498%
COc1ccc(-n2ccnc2SCC(=O)Nc2cccc(OC)c2)cc1 -12.4%
O=C1NC(=O)c2cc(Nc3ccccc3)c(Nc3ccccc3)cc21 -11.4%
Cc1ccc(CNC(=O)C2CCC(CNS(=O)(=O)c3ccc(C)cc3)CC2)cc1 (centres undefined) -3.83%
CCCCN(C)S(=O)(=O)c1ccc(NC2=NS(=O)(=O)c3ccccc32)cc1 3.23%
Cc1ccc(NC(=O)CSc2nc3ccccc3c(=O)n2CCC(=O)NC2CCCCC2)cc1C 7.3%
CCOc1ccccc1NC(=O)c1cc2cc3cc(C)ccc3nc2s1 -8.97%
COc1ccc(-n2c(SCC(=O)NCc3ccco3)nc3c([nH]c4ccccc43)c2=O)cc1 40.4%
CCOC(=O)c1cc2c(=O)n3ccccc3nc2n(Cc2ccco2)c1=NC(=O)c1cccc(C)c1 -34.3%
CCCNC(=O)CSc1c2c(nc3ccc(Cl)cc13)CCCC2 -12.9%
